The source of these data is patent publication US20260174788A1 (priority 2023, published 2026).

The test system of data set [1] is BCG-unresponsive HR NMIBC CIS. The conditions noted are these: cited from earlier work.
Data set [2] deals with participants with HR NMIBC unresponsive to prior intravesical BCG therapy.

Like-named read-outs stand apart in the source and are kept apart here.

On to `CCCCC(=O)OCC(=O)[C@]1(O)Cc2c(O)c3c(c(O)c2[C@@H](O[C@H]2C[C@H](NC(=O)C(F)(F)F)[C@H](O)[C@H](C)O2)C1)C(=O)c1c(OC)cccc1C3=O` [valrubicin], for which the complete response rate entry in data set [1] (in vivo) is on record as “about 20%”.
On to “Keytruda: Keytruda (pembrolizumab), an immune checkpoint therapy”, for which the complete response rate result in data set [1] ([…]) is “about 42%”. The “12-month complete response rate” value in data set [1] (in vivo) is reported as 19%; in data set [1] (in vivo, listed as pembrolizumab), 18%.
With “atezolizumab: other treatment option for BCG-unresponsive HR NMIBC CIS”, the “12-month complete response rate” value in data set [1] (in vivo) was 15%.
As to “cetrelimab: IgG4/K antagonistic anti-PD-1 antibody, heavy chain of SEQ ID NO: 9 and light chain of SEQ ID NO: 10”, in data set [2] (cutoff 4 Apr. 2023), the “Diarrhea, Grade ≥3” value is on record as 0 n (%); the “Diarrhea, any grade” value was 5 (20.8) n (%); the “Dysuria, Grade ≥3” value is on record as 0 n (%); the “Dysuria, any grade” value is given as 1 (4.2) n (%). Further, in data set [2] (cutoff 4 Apr. 2023), the “Grade 3 or higher Immune-related TEAEs” value is recorded as 2 (8.3%) subjects (%), the “Grade >=3 Related TEAEs” value is recorded as 1 (4.2%) subjects (%), the “Grade >=3 Related TEAEs: Cetrelimab” value is listed as 1 (4.2%) subjects (%) and the “Grade >=3 Related TEAEs: Insertion Procedure” value is 0 subjects (%). For the same molecule, in data set [2] (cutoff 4 Apr. 2023), the “Grade >=3 Related TEAEs: Removal Procedure” value is 0 subjects (%), the “Grade >=3 Related TEAEs: TAR-200” value is 0 subjects (%), the “Grade >=3 Related TEAEs: Urinary Placement Catheter” value was 0 subjects (%) and the “Grade >=3 TEAEs” value is listed as 1 (4.2%) subjects (%). Besides, in data set [2] (cutoff 4 Apr. 2023), the “Immune-related TEAEs” value was 12 (50.0%) subjects (%); the “Micturition urgency, Grade ≥3” value is given as 0 n (%); the “Micturition urgency, any grade” value is 1 (4.2) n (%); the “Noninfective cystitis, Grade ≥3” value is on record as 0 n (%). Besides, in data set [2] (cutoff 4 Apr. 2023), the “Noninfective cystitis, any grade” value was 0 n (%); the “Pollakiuria, Grade ≥3” value is given as 0 n (%); the “Pollakiuria, any grade” value is reported as 0 n (%); the “Pruritus, Grade ≥3” value is 0 n (%). In addition, in data set [2] (cutoff 4 Apr. 2023), the “Pruritus, any grade” value is listed as 5 (20.8) n (%); the “Related Serious TEAEs” value is 2 (8.3%) subjects (%); the “Related Serious TEAEs: Cetrelimab” value is given as 2 (8.3%) subjects (%); the “Related Serious TEAEs: Insertion Procedure” value is given as 0 subjects (%). In data set [2] (cutoff 4 Apr. 2023), the “Related Serious TEAEs: Removal Procedure” value was 0 subjects (%), the “Related Serious TEAEs: TAR-200” value is on record as 0 subjects (%), the “Related Serious TEAEs: Urinary Placement Catheter” value was 0 subjects (%) and the “Related TEAEs” value was 12 (50.0%) subjects (%). Moreover, in data set [2] (cutoff 4 Apr. 2023), the “Related TEAEs Leading to Discontinuation: Cetrelimab” value is 1 (4.2%) subjects (%), the “Related TEAEs Leading to Discontinuation: Insertion Procedure” value is 0 subjects (%), the “Related TEAEs Leading to Discontinuation: Removal Procedure” value was 0 subjects (%) and the “Related TEAEs Leading to Discontinuation: TAR-200” value is 0 subjects (%). Further, in data set [2] (cutoff 4 Apr. 2023), the “Related TEAEs Leading to Discontinuation: Urinary Placement Catheter” value is on record as 0 subjects (%), the “Related TEAEs Leading to Treatment Discontinuation” value is given as 1 (4.2%) subjects (%), the “Related TEAEs with Fatal Outcome” value is recorded as 0 subjects (%) and the “Related TEAEs with Fatal Outcome: Cetrelimab” value is 0 subjects (%). Moreover, in data set [2] (cutoff 4 Apr. 2023), the “Related TEAEs with Fatal Outcome: Insertion Procedure” value is recorded as 0 subjects (%), the “Related TEAEs with Fatal Outcome: Removal Procedure” value was 0 subjects (%), the “Related TEAEs with Fatal Outcome: TAR-200” value was 0 subjects (%) and the “Related TEAEs with Fatal Outcome: Urinary Placement Catheter” value is given as 0 subjects (%). In addition, in data set [2] (cutoff 4 Apr. 2023), the “Related TEAEs: Cetrelimab” value is 12 (50.0%) subjects (%), the “Related TEAEs: Insertion Procedure” value was 0 subjects (%), the “Related TEAEs: Removal Procedure” value is reported as 0 subjects (%) and the “Related TEAEs: TAR-200” value is on record as 0 subjects (%). Also, in data set [2] (cutoff 4 Apr. 2023), the “Related TEAEs: Urinary Placement Catheter” value is on record as 0 subjects (%), the “Serious TEAEs” value is on record as 2 (8.3%) subjects (%), the “TEAEs Leading to Treatment Discontinuation” value is reported as 1 (4.2%) subjects (%) and the “TEAEs with Fatal Outcome” value is given as 0 subjects (%). In addition, in data set [2] (cutoff 4 Apr. 2023), the “Urinary tract infection, Grade ≥3” value was 0 n (%); the “Urinary tract infection, any grade” value is 4 (16.7) n (%); the “≥1 AE, Grade ≥3” value is given as 2 (8.3) n (%); the “≥1 AE, any grade” value is given as 19 (79.2) n (%). The TEAEs in data set [2] (cutoff 4 Apr. 2023, safety set 23 TAR-200, 24 CET) was 19 (79.2%) subjects (%). Moreover, in data set [2] (cutoff 20 Feb. 2023), the “COVID-19 associated Non-serious TEAEs” value is 4 (17.4%) subjects (%), the “COVID-19 associated Serious TEAEs” value was 0 subjects (%), the “COVID-19 associated TEAEs” value is 4 (17.4%) subjects (%) and the “Grade >=3 Related TEAEs” value was 2 (8.7%) subjects (%). In addition, in data set [2] (cutoff 20 Feb. 2023), the “Grade >=3 Related TEAEs: Cetrelimab” value is reported as 2 (8.7%) subjects (%), the “Grade >=3 Related TEAEs: Insertion Procedure” value is given as 0 subjects (%), the “Grade >=3 Related TEAEs: Removal Procedure” value was 0 subjects (%) and the “Grade >=3 Related TEAEs: TAR-200” value is recorded as 0 subjects (%). Besides, in data set [2] (cutoff 20 Feb. 2023), the “Grade >=3 Related TEAEs: Urinary Placement Catheter” value is recorded as 0 subjects (%), the “Grade >=3 TEAEs” value is reported as 2 (8.7%) subjects (%), the “Immune related TEAEs (irAEs) as reported by the investigator” value is reported as 10 (43.5%) participants (%) and the “Median time for grade 3 or higher irAEs to be resolved or improved” value came to 51.5 days. Also, in data set [2] (cutoff 20 Feb. 2023), the “Related Serious TEAEs” value is 1 (4.3%) subjects (%), the “Related Serious TEAEs: Cetrelimab” value was 1 (4.3%) subjects (%), the “Related Serious TEAEs: Insertion Procedure” value is 0 subjects (%) and the “Related Serious TEAEs: Removal Procedure” value is listed as 0 subjects (%). In addition, in data set [2] (cutoff 20 Feb. 2023), the “Related Serious TEAEs: TAR-200” value is 0 subjects (%), the “Related Serious TEAEs: Urinary Placement Catheter” value is 0 subjects (%), the “Related TEAEs” value is given as 10 (43.5%) subjects (%) and the “Related TEAEs Leading to Discontinuation: Cetrelimab” value is recorded as 1 (4.3%) subjects (%). For the same molecule, in data set [2] (cutoff 20 Feb. 2023), the “Related TEAEs Leading to Discontinuation: Insertion Procedure” value was 0 subjects (%), the “Related TEAEs Leading to Discontinuation: Removal Procedure” value is 0 subjects (%), the “Related TEAEs Leading to Discontinuation: TAR-200” value was 0 subjects (%) and the “Related TEAEs Leading to Discontinuation: Urinary Placement Catheter” value is reported as 0 subjects (%). Besides, in data set [2] (cutoff 20 Feb. 2023), the “Related TEAEs Leading to Treatment Discontinuation” value is 1 (4.3%) subjects (%), the “Related TEAEs with Fatal Outcome” value is given as 0 subjects (%), the “Related TEAEs with Fatal Outcome: Cetrelimab” value is on record as 0 subjects (%) and the “Related TEAEs with Fatal Outcome: Insertion Procedure” value is reported as 0 subjects (%). In addition, in data set [2] (cutoff 20 Feb. 2023), the “Related TEAEs with Fatal Outcome: Removal Procedure” value is given as 0 subjects (%), the “Related TEAEs with Fatal Outcome: TAR-200” value is 0 subjects (%), the “Related TEAEs with Fatal Outcome: Urinary Placement Catheter” value is recorded as 0 subjects (%) and the “Related TEAEs: Cetrelimab” value is 10 (43.5%) subjects (%). In data set [2] (cutoff 20 Feb. 2023), the “Related TEAEs: Insertion Procedure” value is 0 subjects (%), the “Related TEAEs: Removal Procedure” value was 0 subjects (%), the “Related TEAEs: TAR-200” value was 0 subjects (%) and the “Related TEAEs: Urinary Placement Catheter” value is given as 0 subjects (%). Further, in data set [2] (cutoff 20 Feb. 2023), the “Serious TEAEs” value is recorded as 4.3 subjects (%), the TEAE pruritus turned out to be 21.7%, the “TEAEs Leading to Treatment Discontinuation” value was 1 (4.3%) subjects (%) and the “TEAEs with Fatal Outcome” value is recorded as 0 subjects (%). In addition, in data set [2] (cutoff 20 Feb. 2023, 10 with irAE), the “Participants with an irAE who required treatment with a steroid” value is recorded as 50.0%. Further, the “Serious TEAEs” value in data set [2] (cutoff 20 Feb. 2023, listed as CET) was 1 (4.3%) subjects (%). In addition, the “Participants given steroid for irAEs of toxicity grade 3 or higher” value in data set [2] (cutoff 20 Feb. 2023, oral) turned out to be 1. The TEAEs in data set [2] (cutoff 20 Feb. 2023, treated 22 TAR-200, 23 CET) is 18 (78.3%) subjects (%).
Regarding nadofaragene firadenovec, the “12-month complete response rate” value in data set [1] (in vivo) was 23%.
